Assay results: PubChem BioAssay AID493208 (National Center for Advancing Translational Sciences (NCATS), 2011)
Out of some 44,000 compounds screened, about 340 (0.77%) were called active. Not shown: some 5% with an inconclusive outcome. The call rests on the fitted dose curve; in most records, active means well fitted inhibition curve with a large enough effect; inconclusive means small, poorly fitted or top-dose-only effect; inactive means flat fitted curve, though single readings scatter. The list shows a part of the results.

Assay: Acumen qHTS Assay for Inhibitors of the mTORC1 Signaling Pathway in MEF (Tsc2-/-, p53-/-) Cells: Sytravon; further: nearly all actives have a fitted effect of over 50% in size;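 on activity change, negative = inhibition: plate controls were DMSO for no effect and rapamycin for full effect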
Details: phospho-rpS6 immunofluorescence/PI, 24 h; series mostly up to 38.3 µM; activity change, negative = inhibition: at the top concentration
How it was run: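 Immunofluorescence of rpS6 phosphorylation in Tsc2-/-, p53-/- MEFs after 24 h compound exposure, normalized to propidium iodide signal. Activity is expressed as % positive cells, thresholded with 7.5 nM rapamycin.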
Potency means the concentration at half of the fitted maximal effect.

Row | Compound | activity change, negative = inhibition | Potency
1 | CCOc1cccc(C(c2c(C)n(C)n(-c3ccccc3)c2=O)c2c(C)n(C)n(-c3ccccc3)c2=O)c1OC | inactive: -0.595% | –
2 | CCOc1ccc(NC(=O)c2nn(C)c3c2CS(=O)(=O)c2ccccc2-3)cc1 | inactive: 4.75% | –
3 | CCOc1ccccc1NC(=O)Cn1c(=O)n(-c2ccc(F)cc2)c(=O)c2sc3ccccc3c21 | inactive: 3.11% | –
4 | O=C(Nc1cccc(OCc2cc(=O)n3c4c(sc3n2)CCCC4)c1)c1ccc(F)cc1 | inactive: -5.5% | –
5 | Cc1ccccc1-c1noc(CCC(=O)Nc2cccc(C)c2C)n1 | inactive: -9.35% | –
6 | Cc1ccc2nc(-c3cc(NC(=O)/C=C/c4ccccc4)ccc3Cl)oc2c1 | inactive: 7.96% | –
7 | COc1cc(Cl)c(C)cc1NC(=O)c1cn(C2CCCC2)c(=O)c2c1c1ccccc1n2C | inactive: -21% | –
8 | COc1ccc(C(=O)Nc2ccc3nc(N4CCC(C)CC4)cc(C)c3c2)cc1 | inactive: -7.55% | –
9 | O=C(c1cccc(Cl)c1)N1CCN(CCc2ccncc2)CC1 | inactive: -9.64% | –
10 | CCOc1ccc(-c2nnc(SCC(=O)NCCc3ccc(OC)c(OC)c3)nc2-c2ccc(OCC)cc2)cc1 | inactive: -1.95% | –
11 | CCOCCCNC(=O)C(Cc1ccccc1)NS(=O)(=O)c1ccc2c(c1)c(=O)n(C)c(=O)n2C (centres undefined) | inactive: -13.5% | –
12 | COc1ccc(Cl)cc1-n1c(/C=C/c2cccc3ccccc23)nc2ccccc2c1=O | inactive: 2.24% | –
13 | COc1ccc(-c2nc(CSc3nncn4c3cc3occc34)c(C)o2)cc1 | inactive: -8.77% | –
14 | CCc1ccc(-c2[nH]c3c(c2-c2sc(C)c(C(=O)OC)c2O)c(=O)[nH]c(=O)n3C)cc1 | inactive: 0.84% | –
15 | CCOc1ccc(CCNC(c2cccc(Cl)c2)c2nnc(-c3ccccc3)o2)cc1OCC (centres undefined) | inactive: -18.6% | –
16 | Cc1coc2c(C)c3oc(=O)c(CCC(=O)NCCc4ccccc4)c(C)c3cc12 | inactive: 2.04% | –
17 | Cc1nn(C(=O)c2ccc(Br)cc2)c(C)c1S(=O)(=O)N1CCOCC1 | inactive: -0.784% | –
18 | COc1cccc(/C=C/c2nc(C#N)c(NCCc3ccc(OC)c(OC)c3)o2)c1 | inactive: -0.97% | –
19 | COC(=O)c1ccc2c(c1)N(Cc1ccc(F)cc1)C(=O)c1ccccc1S2 | inactive: 2.96% | –
20 | Cn1c(NCCO)nc2c1c(=O)n(Cc1cccc(F)c1)c(=O)n2C | inactive: 1.8% | –
21 | CCOc1ccc(CCNC(=O)c2cnc3c(-c4ccc(F)cc4)c(C)nn3c2C)cc1OCC | inactive: -5.54% | –
22 | O=C(NCCc1ccc(Cl)cc1)c1cnc2sc(N3CCCCC3)nn2c1=O | inactive: -0.973% | –
23 | COc1ccc2c(c1)sc1ncc(C(=O)NCc3ccc(OC(C)C)cc3)c(=O)n12 | inactive: -2.19% | –
24 | COc1ccc(-c2cc(C(F)(F)F)nc(SCCC(=O)Nc3cc(C)ccc3O)n2)cc1 | inactive: -14.6% | –

Row | Compound | activity change, negative = inhibition | Potency
25 | Oc1c(C(c2ccc(Cl)cc2)N2CCC3(CC2)OCCO3)sc2nc(-c3ccco3)nn12 (centres undefined) | inactive: -0.117% | –
26 | CCn1c(=O)c(C(=O)Nc2ccc(C(C)=O)cc2)nc2ccccc21 | inactive: -1.48% | –
27 | COc1cc(NC(=O)c2cccc3c2C(=O)N(C2CCCCC2)C3)cc(OC)c1 | inactive: 0.257% | –
28 | O=C(Cn1c(=O)oc2ccccc21)Nc1ccc(C(=O)O)cc1 | inactive: -0.152% | –
29 | CCOc1ccccc1NC(=O)CSc1nc2cc(OC)c(OC)cc2c2nc(-c3ccccc3)nn12 | inactive: -6.34% | –
30 | Cc1ccc(C)c(CN2C(=O)c3ccccc3S(=O)(=O)c3ccc(C(=O)N4CCN(c5ccccc5)CC4)cc32)c1 | inactive: 0.0572% | –
31 | C#CCSc1nc2sc3c(c2c(=O)n1Cc1ccccc1)CCCC3 | inactive: -15.8% | –
32 | COc1ccccc1OCCSc1nc2ccccc2n1CC(=O)N1CCOCC1 | inactive: -3.67% | –
33 | Cc1ccc(NC(=O)CCS(=O)(=O)c2cccc3nonc23)cc1Cl | inactive: -16% | –
34 | Cc1ccccc1Nc1c(-c2ccco2)nc2c(C)cccn12 | inactive: 3.81% | –
35 | Cc1ccc(CS(=O)(=O)c2ncc(Cl)c(C(=O)Nc3nc4ccc(C)cc4s3)n2)cc1 | inactive: -0.341% | –
36 | Cc1cccc(NC(=O)Cn2c(=O)n(CCCS(=O)(=O)C3CCCCC3)c(=O)c3ccccc32)c1 | inactive: -6.73% | –
37 | CCCCN(CCCC)CCNC(=O)Cn1nc(CC)n2c(cc3sc(C)cc32)c1=O | inactive: -0.318% | –
38 | O=S1(=O)c2ccccc2N(Cc2cccc(C(F)(F)F)c2)c2ccccc21 | inactive: 0.522% | –
39 | CCOC(=O)c1ccc(-n2c(C)nc3c(cnn3-c3ccc(Cl)cc3)c2=O)cc1 | inactive: -0.773% | –
40 | Cc1ccc(-c2onc(C)c2C)cc1S(=O)(=O)N1c2ccccc2CC1C (centres undefined) | inactive: -2.45% | –
41 | COc1ccc(CCNC(=O)c2c(O)nc3c(C)cccn3c2=O)cc1 | inactive: 0.829% | –
42 | CCOCCc1nn2c(=O)cc(COC(=O)c3ccccc3NC(=O)C3CCCCC3)nc2s1 | inactive: 2.56% | –
43 | O=C(NCCn1cc(SCc2ccc(Cl)cc2)c2ccccc21)c1cccs1 | inactive: -4.24% | –
44 | COc1cccc(-c2nc(SCC(=O)Nc3ccc4c(c3)OCCO4)c(-c3ccccc3)[nH]2)c1 | inactive: -0.392% | –
45 | COc1cc(OC)c(N(C)C(=O)CCNC(=O)Cn2cnc3ccccc3c2=O)cc1Cl | inactive: -2.68% | –
46 | CCOC(=O)c1[nH]c(C)c(CCC(=O)N2CCN(c3cccc(OC)c3)CC2)c1C | inactive: 0.0901% | –
47 | CCCCN(CC)C(=O)CSc1nc2n[nH]c(C)c2c(=N)n1-c1cccc(Cl)c1 | inactive: -3.35% | –
48 | Cc1ccc(-c2noc(-c3ccccc3NC(=O)c3ccccc3)n2)cc1 | inactive: -16.5% | –

Row | Compound | activity change, negative = inhibition | Potency
49 | CCC(=O)N1CCc2cc(Br)cc(S(=O)(=O)CCC(=O)NCc3ccccc3OC)c21 | inactive: -1.38% | –
50 | CCOc1ccc(NC(=O)Cn2ncc3c2-c2cc(C)ccc2OC3)cc1 | inactive: 3.72% | –
51 | Cc1ccc(NC(=O)Cc2ccc(-n3c(C)nc4cccnc43)cc2)c(Cl)c1 | inactive: -10.6% | –
52 | COc1ccccc1C(=O)NCCn1cc(SCC(=O)Nc2ccccc2F)c2ccccc21 | inactive: 0.232% | –
53 | COc1ccc(CCNC(=O)C(=O)Nc2ccccc2F)cc1 | inactive: -14.2% | –
54 | Cc1ccc(CNC(=O)C(=O)Nc2c3c(nn2-c2ccccc2)CSC3)cc1 | inactive: -0.774% | –
55 | O=C(NCc1ccccc1)c1ccc(CNS(=O)(=O)c2ccc(Br)cc2)cc1 | inactive: -3.88% | –
56 | COc1ccccc1CNS(=O)(=O)c1ccc2c(c1)CC(C)N2C(C)=O (centres undefined) | inactive: -11.9% | –
57 | CC1CCN(S(=O)(=O)c2ccc3c(c2)N(CC(=O)NC(C)c2ccccc2)C(=O)CS3)CC1 (centres undefined) | inactive: 0.96% | –
58 | Cc1ccc(C)c(N2CCN(S(=O)(=O)c3ccc4[nH]c5c(c4c3)CCCCC5)CC2)c1 | inactive: -1.7% | –
59 | CC(C)Cn1cc(NC(=O)N2CCN(c3cccc(Cl)c3)CC2)c2ccccc2c1=O | inactive: -1.92% | –
60 | COc1cc(Cl)c(S(=O)(=O)NCCc2c(C)[nH]c3c(C)cccc23)cc1Cl | inactive: -8.41% | –
61 | CCc1ccc(NC(=O)N2CCOc3ccc(Cl)cc32)cc1 | inactive: -19.8% | –
62 | COC(=O)c1ccc(NC(=O)CC2C(=O)N(c3cccc(OC)c3)C(=O)N2Cc2cccs2)cc1 (centres undefined) | inactive: -1.08% | –
63 | Cc1ccc(-c2nc(NC(=O)CSc3cc(C)c4ccccc4n3)ns2)cc1 | inactive: 2.73% | –
64 | Cc1cc(C)c(NC(=O)c2cc(S(=O)(=O)N3CCC4(CC3)OCCO4)ccc2F)c(C)c1 | inactive: 11.7% | –
65 | CCN(CCCNC(=O)Cn1ncc2c3ccccc3n(C)c2c1=O)Cc1ccccc1 | inactive: -1.07% | –
66 | COc1ccc(Cn2c(C(=O)O)c(CNCc3ccccc3F)c3ccc(OC)cc32)cc1 | – | active: 11.7 µM
67 | COC(=O)c1ccc(C2c3c(-c4ccccc4O)n[nH]c3C(=O)N2Cc2cccnc2)cc1 (centres undefined) | inactive: -13.3% | –
68 | O=C(Nc1cc(-c2nc3cc(Cl)ccc3o2)ccc1Cl)c1ccco1 | inactive: -1.85% | –
69 | COc1cccc(C2C(C(=O)Nc3ccc(C)cc3C)=C(C)Nc3c(C(=O)Nc4ccccc4)cnn32)c1 (centres undefined) | inactive: 6.4% | –
70 | O=C(Nc1nnc(S(=O)(=O)N2CCCc3ccccc32)s1)c1cccc(Cl)c1 | inactive: 9.54% | –
71 | CCc1ccc(NC(=O)CSc2nc(=O)n(Cc3ccccn3)c3c2CCC3)cc1 | inactive: 3.22% | –
72 | CCc1cccc(C)c1NS(=O)(=O)c1c(C(=O)N2CCC(C)CC2)c(C)n(C)c1C | inactive: 0% | –

Row | Compound | activity change, negative = inhibition | Potency
73 | COc1ccc(S(=O)(=O)N2CCC(C(=O)Nc3ccc(Oc4ccccc4)cc3)CC2)cc1 | inactive: -13.2% | –
74 | COc1ccc(NC(=O)c2cc(S(=O)(=O)N3CCOCC3)ccc2OC)cc1 | inactive: 0.158% | –
75 | COc1ccc(S(=O)(=O)Nc2cccc(-c3ccc(N4CCCC4)nn3)c2)c(OC)c1 | inactive: 4.65% | –
76 | COc1cc(Cl)c(C)cc1NC(=O)C1CCN(c2nc3ccccc3n3cccc23)CC1 | – | active: 14.7 µM
77 | Cc1ccc(C)c(NC(=O)N2CCN(C(=O)c3nsc4ccccc34)CC2)c1 | inactive: 11.9% | –
78 | COc1ccc(CNC(=O)c2cc3cc4cc(OC)ccc4nc3o2)cc1 | inactive: 0.905% | –
79 | COc1cccc(CNC(=O)c2ccc3c(c2)c(C)c(C)n3Cc2ccccc2)c1 | inactive: 7.97% | –
80 | Cc1nnc(N2CCC(C(=O)NC3CCCCC3)CC2)c2nn(-c3ccccc3)c(C)c12 | inactive: -0.361% | –
81 | NC(=O)C1CCN(C(=O)c2ccc(NC(=O)c3nsc4ccccc34)cc2)CC1 | inactive: -10.4% | –
82 | CCOc1ccccc1N(CC)C(=O)Cn1ncc2c([nH]c3ccccc32)c1=O | inactive: 0.428% | –
83 | Clc1cccc(-c2ccc(CNCCSc3nnnn3-c3ccccc3)o2)c1 | inactive: -15.4% | –
84 | O=C(c1ccccc1)N1CCN(CCc2ccncc2)CC1 | inactive: -9% | –
85 | CCOC(=O)c1c(C)[nH]c(C)c1S(=O)(=O)N1CCC(C(=O)Nc2cc(Cl)ccc2OC)CC1 | inactive: 3.39% | –
86 | CC1=C(c2ccc(C)c(C)c2)S(=O)(=O)NC1=NCc1ccccc1Cl | inactive: 2.77% | –
87 | CCOc1ccc(CCNC(=O)c2cn(C)c3ccc(S(=O)(=O)N4CCCCC4)cc3c2=O)cc1OCC | inactive: 7.67% | –
88 | COc1ccccc1C(=O)Nc1cccc(C(=O)OCc2cc(=O)n3cc(C)sc3n2)c1 | inactive: 0% | –
89 | CCc1nc2nc(C)c(NS(=O)(=O)c3ccc(C(C)(C)C)cc3)c(=O)n2[nH]1 | inactive: -7.8% | –
90 | O=C(CCn1cnc2ccccc2c1=O)NCc1ccccc1Cl | inactive: -2.31% | –
91 | O=C(CNC(=O)c1ccc(F)cc1)OCc1cc(=O)n2nc(C3CC3)sc2n1 | inactive: -12.5% | –
92 | CCOC(=O)c1sc2ncn(CC(=O)Nc3ccc(OCC)cc3)c(=O)c2c1C | inactive: -3.38% | –
93 | COc1ccc(-c2nc(C)c(CCNS(=O)(=O)c3cc(Cl)ccc3Cl)s2)cc1 | inactive: -7.66% | –
94 | Cc1c(C(=O)Nc2cccc(C(F)(F)F)c2)oc2ccc3c(c12)C(=O)CC(C)(C)O3 | inactive: -17.6% | –
